Test results as given in the supplement of paper PMC3334620.
In all, about 33,000 sequences were measured (“E-score (-0.5 to 0.5)”: median about -0.016, highest 2% from about 0.32 on). The list shows a part of the results.

target: T1, Stp1 (UniProt B3LFK1); assay: PBM E-score (8-mer binding enrichment) (E-score (-0.5 to 0.5)); higher = stronger / more preferred TF binding; most listed sequences are background and not binding sites; conditions: protein concentration: 200 nM; construct: GST-full length
T1 sequence: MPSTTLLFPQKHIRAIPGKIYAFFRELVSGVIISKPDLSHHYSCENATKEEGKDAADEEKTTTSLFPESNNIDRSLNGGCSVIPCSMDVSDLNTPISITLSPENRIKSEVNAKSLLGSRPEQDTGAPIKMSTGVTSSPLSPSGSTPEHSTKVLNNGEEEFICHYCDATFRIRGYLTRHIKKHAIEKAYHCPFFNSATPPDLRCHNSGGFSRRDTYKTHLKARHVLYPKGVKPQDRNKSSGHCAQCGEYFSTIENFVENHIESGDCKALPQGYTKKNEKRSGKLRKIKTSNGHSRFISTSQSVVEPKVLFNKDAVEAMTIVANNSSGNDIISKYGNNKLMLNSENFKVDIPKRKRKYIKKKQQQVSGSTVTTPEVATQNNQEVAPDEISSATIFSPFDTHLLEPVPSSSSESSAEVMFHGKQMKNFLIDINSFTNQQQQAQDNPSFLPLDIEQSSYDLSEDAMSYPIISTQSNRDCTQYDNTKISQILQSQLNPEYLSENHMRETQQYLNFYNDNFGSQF
Description: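 Universal 'all 10-mer' protein binding microarrays (Agilent AMADID 015681) probed with GST-tagged S. cerevisiae TFs (full-length or DBD) made by in vitro transcription/translation (PURExpress), about 100-200 nM. Bound TF was detected with fluorescent anti-GST. Each ungapped 8-mer (which stands for itself and its reverse complement) is scored by the PBM enrichment score (E-score), a modified Wilcoxon-Mann-Whitney statistic from -0.5 to +0.5, computed with the Universal PBM Analysis Suite. Scale: above 0.35 generally sequence-specific binding.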

Sequence | PBM E-score
CTTCCTGA | 0.0538
AGCGTCCA | -0.197
AATATTTG | 0.181
CAACTTCG | 0.114
AAACAGTG | -0.0405
AGGGGAGG | -0.213
ATCCACAT | 0.0725
CGCGGTGC | 0.135
AGACTCCG | -0.0821
CAAGCTAA | -0.267
ACGCCAGA | -0.159
CCTATATA | 0.0736
ACCCGACA | -0.0605
ATACGGGA | 0.125
CGATTGAC | 0.0667
CAGACCCA | -0.255
CTGCTAGA | 0.0114
CGTAAAGA | 0.228
AGATTCTG | -0.029
CGGTTGAC | -0.0333
GATTGCGA | 0.0729
CATATCAG | 0.0919
CCCAGCAC | -0.28
AATACTGG | -0.155
CATACATC | -0.155

Sequence | PBM E-score
CAAAGCCA | 0.0366
GGGTACCC | -0.326
CCCGGCCG | -0.152
GCGTCCTA | -0.157
CTGCTGTC | -0.116
ATCGAGTC | -0.0633
ACCTATAA | -0.041
AACAGATA | 0.0536
CCCGCTAA | -0.216
TAAATCGA | 0.201
ACCAGGCC | -0.0465
CAGTGGGG | -0.239
GAGGAAAC | -0.155
GATGCCTA | 0.149
GCGGTGCC | 0.29
GACTTACA | -0.162
CACTAGTA | 0.00039
ATTAAGAG | 0.0434
ACCAGCCC | -0.233
AACCGTCC | -0.24
GGTGTATA | -0.171
AGTTTCGC | 0.0498
ACCTTAAC | 0.0546
GATGCCAC | 0.245
GACTTTCC | -0.198

Sequence | PBM E-score
AGACGATG | 0.101
GCTGGATA | -0.0328
ATCTGCAC | -0.214
CATGTAGA | -0.0229
AGCGCGGG | 0.098
CAACATTG | 0.0989
CCGAAGCA | -0.12
CGTGACAG | -0.00558
CACCACAC | 0.104
ATCCGACA | -0.145
CTGCCGCA | 0.347
CTATAATC | -0.0205
ACGCTGTA | 0.0495
CTTTAGAA | 0.163
ACGTAGGA | -0.0769
GACTAGCA | -0.106
AATCGAAT | 0.236
GCCCAGGA | -0.134
TAACTATA | -0.0179
GCGGCAGC | 0.334
AGAAGGCA | 0.162
CCGAGCAC | -0.158
CCATCGCG | 0.173
GCATTTAA | 0.235
GAAGTCCA | -0.179

Sequence | PBM E-score
ACGAAATG | -0.0265
AGCAGAGA | -0.0687
GGCGAAAA | 0.207
AGCGCCGC | 0.481
GTCGTCGA | -0.059
CACCCGAA | -0.0461
AATGCCGA | 0.303
CCTAACAC | 0.067
CGGCTTAG | 0.0549
ACTCCCTA | -0.244
ATTAGTCG | 0.151
CACATCAG | -0.131
GGGTAGTA | -0.169
AGTACGCC | 0.0806
ACGGTCTC | -0.041
TAGCGCAA | -0.0177
GCGTATTA | -0.0425
GTAGCGCA | -0.0641
CCGGCTAA | -0.056
AACGCACT | -0.0239
CTGGGACA | -0.133
AATTTGTG | 0.149
AAGGACAA | 0.118
GGCAAGCC | 0.00627
AAACTTCT | 0.0968

Sequence | PBM E-score
AACATAAA | 0.0488
GGGGACGA | -0.249
AGATTTAT | 0.218
AATTACAA | -0.00331
CCATACGG | 0.395
TTAGGCAA | -0.0119
ACAACACG | 0.147
CCGAGTGA | -0.0864
GACTCGCC | -0.0418
GATACTCA | -0.125
GATCTAAA | 0.0401
GGGAGCGA | -0.21
ATCACTCA | 0.104
ACTAGAGG | -0.17
AGACACGA | -0.124
TGACTGAA | -0.114
AACTAGAG | -0.0509
ATCTACCG | -0.0632
ACGGCTTA | 0.375
CGCACACC | 0.0466
CATCTGGG | -0.155
GCTTAGCC | -0.0807
ACAATCTA | -0.0175
GGGATGCA | -0.182
GCTTTTCC | -0.0701

Sequence | PBM E-score
CAACCTTC | -0.146
AGTAAGCA | 0.0206
GAGCATCA | 0.0573
TCTGATCA | -0.039
GAGGGCTA | -0.267
TCTCGCAA | -0.0228
AGCTCCTA | -0.218
CTATGCGC | 0.143
AATGGTAC | -0.0272
AAAAATAG | 0.146
GGTGCTGA | -0.195
AGCCGTCC | 0.308
ACATCCAC | -0.0198
AAAGTACA | 0.0729
GAGTGTTA | -0.0319
ACTTTGAT | 0.148
GGCATCCC | -0.0465
GGCTCAGA | 0.114
CGACGCGA | -0.126
AGGATGAT | -0.0991
ACCGGATG | -0.112
GGCACTAA | 0.392
CCGGGTCG | -0.302
CGGCAAGA | 0.236
ACGGTGCT | -0.0146

Sequence | PBM E-score
AGCCCCCT | -0.307
GTCGTAGA | -0.0493
CTTGTAGC | 0.054
ACGCGGAC | 0.0606
GCTGGTAC | -0.0636
CCACGCCA | 0.0283
CGGCGCGA | 0.477
ACCCGATA | -0.245
AGCCCACT | -0.203
CATCCAGA | -0.174
ACTAGCAA | -0.0401
CCACACAA | -0.00214
CGTGGTGA | -0.0722
ATCTTGCG | 0.153
ATCACTGG | 0.0741
CACGTTTC | -0.259
ATGCTCAA | -0.119
CTCTGCTA | -0.0669
CCGTGAGA | 0.00516
GGATGTCA | -0.045
ACGCAGTA | 0.0148
CATCATAG | -0.0514
ATAGCGGG | -0.0712
CCTACCAC | -0.128
CAGTCGCG | -0.187

Sequence | PBM E-score
GGACACAA | 0.122
GCATCTAA | 0.221
TCTAGCAA | 0.115
CGTCCTTC | -0.161
AGAAAGGC | 0.206
CGTATAGA | 0.152
CACGGAAC | 0.253
ACTTAGTC | -0.208
ATTCCGAA | 0.129
CCCTATCG | -0.196
ATGGGAAC | -0.132
AGCTTGTA | 0.0115
ACTTAGAC | 0.111
GCCCTACA | 0.0881
ATAAAGAT | 0.0858
GGAGAGAC | -0.259
TATAGTGA | 0.0183
CGCCCACC | 0.00958
TCGTAGCA | 0.119
GTGTTAAC | 0.094
ACTGTAAG | 0.144
ACTTAAAT | 0.0505
GACTACTA | -0.0239
GAGACATC | -0.133
CAAGCGTC | -0.0885

Sequence | PBM E-score
AGGCGGGA | -0.183
ATGGCTAC | -0.0246
CATGCGGG | 0.0548
CGCAATCA | 0.0332
CAGGTACG | -0.0382
AAGAAAAT | 0.164
CTATAAGC | -0.0357
CAGTGAAC | -0.0426
GAGACGCA | -0.0219
GTCCAATA | -0.155
GAAGGGCC | -0.0951
GCGCGGAA | 0.263
CAGGTGTA | -0.142
GCTGCGTA | -0.0797
ACACCGGA | -0.154
GCCTGCGC | 0.0437
GACGTAAA | 0.0685
GATAAGAC | -0.00155
ACTTTCAA | 0.0067
